# Test results published in PubChem BioAssay (NCATS).
# Several values for one entry are separate records, joined by “and”; a condition that tells them apart may be missing. Identical values can stand only once. Inconclusive results, whose numbers are uncertain, are shown with a selection of clear calls. For some of these results: A potency beside an inconclusive call is a rough fit, not a confirmed value. Activity calls are given as the source filed them. The call rests on the fitted dose curve; in most records, active means well fitted curve in the direction sought with a large enough effect; inconclusive means small, poorly fitted or top-dose-only effect, or another doubt; inactive means no such curve, though single readings can be large; an effect the other way counts as inactive or inconclusive.
# Tests used:
# [1] = P-glycoprotein substrates identified in KB-8-5-11 adenocarcinoma cell line, qHTS therapeutic library screen (AID 1346987); further: nearly all actives have a fitted effect of over 65% in size
# Summary of the method: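 P-gp-mediated resistance screen: KB-8-5-11 cells treated 72 h with compounds in dose-response. CellTiter-Glo viability.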
# [2] = tested on: Zika virus NS2B-NS3 protease (unlinked complex); experiment: Primary screen GU Rhodamine qHTS for Zika virus inhibitors: Unlinked NS2B-NS3 protease assay (AID 1347159); further: nearly all actives have a fitted effect of over 60% in size; on activity change, negative = inhibition: on the % scale 0 is the no-effect control and ±100 the full control effect
# Summary of the method: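 Noncovalent NS2B hydrophilic domain–NS3 protease domain complex (25 nM) preincubated 15 min at room temperature with compounds (up to 114 microM) in 10 mM Tris-HCl pH 8.0, 0.01% Tween 20; 1.5 microM Rhodamine110 substrate added, fluorescence change over 15 min fitted to Hill equation.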
# [3] = tested on: Zika virus NS2B-NS3 protease (linked construct); experiment: Primary screen NINDS Rhodamine qHTS for Zika virus inhibitors (AID 1347160); settings: activity change, negative = inhibition: at 57.1 µM (top of the series) unless noted; further: nearly all actives have a fitted effect of over 55% in size; on activity change, negative = inhibition: on the % scale 0 is the no-effect control and ±100 the full control effect
# Summary of the method: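 Purified linked NS2B-NS3 protease (NS2B hydrophilic domain joined to NS3 protease by flexible linker), 25 nM in 10 mM Tris-HCl pH 8.0, 0.01% Tween 20. Compounds titrated, 15 min preincubation at room temperature; 1.5 microM Rhodamine110 substrate, FITC fluorescence change over 15 min.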
# [4] = Primary qHTS for inhibitors of nuclear receptor binding SET domain protein 2 (NSD2) in an isogenic RCH-ACV NSD2 p.E1099K mutant (9B) (AID 1645876); further: nearly all actives have a fitted effect of over 70% in size
# [5] = Primary qHTS for inhibitors of nuclear receptor binding SET domain protein 2 (NSD2) in an RCH-ACV wild type WT cells (2C) (AID 1645877); settings: activity change, negative = cell killing: at 44.9 µM (top of the series) unless noted; further: nearly all actives have a fitted effect of over 70% in size
# [6] = target: Phospholipid hydroperoxide glutathione peroxidase GPX4 (Homo sapiens) (UniProt P36969); experiment: Primary qHTS Assay for Inhibitors of Recombinant Selenoprotein Glutathione Peroxidase 4 (GPX4) (AID 1845192); further: nearly all actives have a fitted effect of over 65% in size
# Summary of the method: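 GR-coupled readout: 100 nM GR, 1 mM GSH, 0.5 mM NADPH; NADPH fluorescence (ex 340/em 450 nm) read at t=0 and after 15 min RT. GPX4 200 nM, preincubated 30 min with compound; substrate 0.5 mM CHP.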
# [7] = tested on: KB-3-1; experiment: Cytotoxic Profiling of Annotated Libraries Using Quantitative High-Throughput Screening (AID 1296008); settings: Five cell lines viability, CellTiter-Glo ATP luminescence, 48-72 h; max response: active compounds read low; further: nearly all actives have a fitted effect of over 60% in size; on max response: on the % scale 0 is the no-effect control and ±100 the full control effect
# Summary of the method: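 Compounds were pin-transferred onto cells and incubated 48 or 72 hr at 37 degree Celsius, 95% humidity. CellTiter-Glo was added, plates sat 10 min at room temperature, then ATP-coupled luminescence was imaged as the viability read-out.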
# [8] = tested on: SKOV3; experiment: Primary qHTS to identify gynecologic anti-cancer compounds using libraries of approved drugs and bioactive compounds (AID 1345084); settings: Gynecologic cancer cell panel viability, ATPlite luminescence, 48 h; series mostly up to 57.5 µM; further: nearly all actives have a fitted effect of over 55% in size
# Summary of the method: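 Five-point cytotoxicity, 48 h drug exposure at 37 C, 5% CO2, on cells seeded 16 h beforehand. ATP content read by ATPlite luminescence.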
# [9] = Drug repurposing screens with cells derived from glioblastoma tumor samples (AID 1345199); settings: GBM patient neurospheres viability, ATP luminescence, 48 h; Potency: tumour line A unless noted; activity, negative = cell killing: at 46 µM (top of the series), tumour line A unless noted; further: nearly all actives have a fitted effect of over 40% in size; on activity, negative = cell killing: on the % scale 0 is the no-effect control and ±100 the full control effect
# Summary of the method: (§1)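 Four patient lines of CD133+ GBM neurospheres were screened at several concentrations; hits were retested in those lines plus three slower-growing GBM lines, using 48-hour treatment and ATP-based viability.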
# [10] = tested on: CP215; experiment: qHTS profiling for inhibitors of Plasmodium falciparum proliferation (AID 504749); further: nearly all actives have a fitted effect of over 60% in size; settings: P. falciparum in erythrocytes, SYBR Green DNA, 72 h; series mostly up to 28.7 µM
# Summary of the method: (§2)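 P. falciparum-infected erythrocytes (0.3% parasitemia, 2.5% hematocrit final) were exposed to compounds for 72 h at 37 C in 5% CO2, then lysed with SYBR Green buffer overnight at room temperature; parasite DNA fluorescence was normalized to artemisinin and DMSO controls.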
# [11] = tested on: CP260; experiment: as above; settings: P. falciparum in erythrocytes, SYBR Green DNA, 72 h; series mostly up to 28.7 µM
# Summary of the method: as §2
# [12] = S16 Schwann cell PMP22 intronic element firefly luciferase assay (AID 624032); further: nearly all actives have a fitted effect of over 30% in size
# Summary of the method: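 Rat S16 Schwann cells stably carrying a PMP22 intronic element-driven Fluc reporter were seeded overnight, then exposed to compounds for 24 h at 37 °C. Luminescence was normalized to PTC124 (positive control) and DMSO (0% activity).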
# [13] = tested on: ICS; experiment: qHTS profiling for inhibitors of Plasmodium falciparum proliferation (AID 504749); further: nearly all actives have a fitted effect of over 60% in size; settings: P. falciparum in erythrocytes, SYBR Green DNA, 72 h; series mostly up to 28.7 µM
# Summary of the method: as §2
# [14] = tested on: PC26; experiment: as above; settings: P. falciparum in erythrocytes, SYBR Green DNA, 72 h; series mostly up to 28.7 µM
# Summary of the method: as §2
# [15] = tested on: astro; experiment: Drug repurposing screens with cells derived from glioblastoma tumor samples (AID 1345199); settings: viability, ATP luminescence, 48 h; activity, negative = cell killing: at 45.9 µM (top of the series); further: nearly all actives have a fitted effect of over 40% in size
# Summary of the method: as §1
# [16] = Primary fluorescence-based thiol-reactive (MSTI) qHTS assay for identification of artifact compounds. (AID 1845221);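 further: thiol-reactive compounds lower the probe fluorescence signal; nearly all actives have a fitted effect of over 65% in size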
# Summary of the method: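 Thiol-reactive compounds detected by quenching of 4 uM MSTI fluorescence (525/598 nm) after 1 h room-temperature dark incubation in PBS pH 7.4, 2% DMSO. qHTS titration; percent inhibition Hill-fitted against Acetyl-MSTI/MSTI controls.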
# Potency means the concentration at half of the fitted maximal effect; tags describe the fitted curve by direction and shape.
# UniProt P36969, sequence (P36969 whole entry, looked up): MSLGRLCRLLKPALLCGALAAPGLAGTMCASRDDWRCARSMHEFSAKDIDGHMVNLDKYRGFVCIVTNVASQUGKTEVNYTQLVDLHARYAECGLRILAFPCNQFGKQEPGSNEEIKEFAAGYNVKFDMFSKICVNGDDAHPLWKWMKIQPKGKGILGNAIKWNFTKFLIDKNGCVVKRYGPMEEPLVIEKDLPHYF
smiles,measurement,setting,value
O=C1NC(=O)/C(=C/c2cccc(C(F)(F)F)c2)S1,Potency,[1],"inconclusive: 25.9 µM [inhibitor, single point]"
same,Potency,[2],active: 2.51 µM
same,Potency,[3],active: 3.55 µM
same,Potency,[4],"inconclusive: 20.9 µM [inhibitor, partial curve]"
same,Potency,[5],"inconclusive: 32.6 µM [inhibitor, partial curve, poor fit] and inconclusive: 26.3 µM [inhibitor, single point]"
same,Potency,[6],"inconclusive: 18 µM [inhibitor, partial curve]"
same,max response,[7],inactive: -2.21%
same,Potency,[8],"inconclusive: 39.8 µM [rising, single point]"
CC1(C)CC[C@]2(C(=O)O[C@@H]3O[C@H](CO)[C@@H](O)[C@H](O)[C@H]3O)CC[C@]3(C)C(=CCC4[C@@]5(C)C[C@@H](O)[C@H](O)[C@@](C)(CO)C5[C@H](O)C[C@]43C)C2C1 (stereo not given in full),max response,[7],inactive: -2.95%
same,Potency,[8],inactive
C=C(C)Cn1c(SCC(=O)c2cccs2)nc2sc3c(c2c1=O)CCCC3,Potency,[1],"inconclusive: 7.31 µM [inhibitor, partial curve]"
same,Potency,[3],inactive
same,Potency,[4],"inconclusive: 1.83 µM [inhibitor, full curve]"
same,Potency,[5],"inconclusive: 2.3 µM [inhibitor, full curve]"
same,Potency,[7],"inconclusive: 13 µM [inhibitor, partial curve]"
CC1=C2CC(C)(C)CC2C(O)C2=C(C1)C(=O)OC2O (stereo not given),Potency,[1],inactive
same,outcome,[7],inactive
Cc1nc2n(c(=O)c1CCN1CCC(c3noc4cc(F)ccc34)CC1)CCC[C@H]2O,Potency,[2],inactive
same,Potency,[4],inactive
same,max response,[7],inactive: -12.7% and inactive: -2.14%
same,Potency,[9],active: 15.8 µM
Nc1nc2c(c(=O)[nH]1)N(C=O)C(CNc1ccc(C(=O)N[C@@H](CCC(=O)O)C(=O)O)cc1)CN2 (stereo not given in full),max response,[7],inactive: 0.559%
same,Potency,[9],inactive
COc1cc(C[C@@H]2NCCc3cc(O)c(O)cc32)cc(OC)c1OC,max response,[7],inactive: -8.11%
same,Potency,[9],"inconclusive: 3.16 µM [inhibitor, full curve]"
N[C@H](CO)C(=O)O,Potency,[10],"inconclusive: 13.5 µM [activator, partial curve, poor fit]"
same,Potency,[11],inactive
same,max response,[7],inactive: -2.03%
same,Potency,[9],"inconclusive: 12.6 µM [inhibitor, partial curve]"
CN1C(C(=O)Nc2ccccn2)C(=O)c2sc(Cl)cc2S1(=O)=O (stereo not given),Potency,[12],"inconclusive: 32.2 µM [inhibitor, single point]"
same,Potency,[1],"inconclusive: 29.1 µM [inhibitor, single point]"
same,Potency,[10],inactive
same,Potency,[13],"inconclusive: 11.2 µM [inhibitor, single point]"
same,Potency,[14],"inconclusive: 3.38 µM [inhibitor, partial curve, poor fit]"
same,max response,[7],inactive: 5.88%
same,Potency,[9],"inconclusive: 17.8 µM [inhibitor, partial curve]"
CC(=O)[C@@]1(O)CC[C@H]2[C@@H]3C=C(Cl)C4=CC(=O)CC[C@]4(C)[C@H]3CC[C@@]21C,Potency,[1],"inconclusive: 14.6 µM [inhibitor, partial curve]"
same,max response,[7],inactive: -17.5%
same,Potency,[9],active: 12.6 µM
same,Potency,[15],"inconclusive: 22.4 µM [inhibitor, partial curve]"
C#C[C@]1(OC(C)=O)CC[C@H]2[C@@H]3CCC4=CC(=O)CC[C@@H]4[C@H]3CC[C@@]21C,Potency,[7],"inconclusive: 32.6 µM [inhibitor, single point]"
same,Potency,[9],active: 35.5 µM
same,Potency,[15],"inconclusive: 11.2 µM [inhibitor, partial curve]"
c1ccc(C(OC2CCN(CCCc3nn[nH]n3)CC2)c2ccccc2)cc1,Potency,[4],inactive
same,max response,[7],inactive: -3.18%
CC1=CC2=C(C)C(=O)C(C)(O)C(O)C2CO1 (stereo not given),Potency,[1],inactive
same,Potency,[2],"inconclusive: 31.6 µM [inhibitor, full curve, poor fit]"
same,Potency,[4],inactive
same,Potency,[16],"inconclusive: 2.67 µM [inhibitor, full curve]"
same,max response,[7],inactive: 5.71%
same,Potency,[8],"inconclusive: 28.2 µM [rising, single point]"
CO/N=C(\C(=O)N[C@@H]1C(=O)N2C(C(=O)OCOC(=O)C(C)(C)C)=C(/C=C\c3scnc3C)CS[C@H]12)c1csc(N)n1,Potency,[1],inactive
same,Potency,[6],active: 14.1 µM
same,max response,[7],inactive: -14.1%
same,Potency,[9],inactive
